Measurements reported in patent US20260297081A1, “COMPOUNDS AND METHODS OF TREATING CANCERS” (Cullgen Inc., priority 2023, published 2026).
The name of at least one read-out is uncertain.

System: cyclin D1
Experiment: HiBiT detection of HiBiT-tagged cyclin D1 protein level in MCF7 cells, 16 hours (Table 8)
Type: cell-based
Conditions: MCF7 cells stably expressing HiBiT tagged target proteins

## CNc1ccc(C(=O)Nc2ccc(N(C)C)nn2)c(NCCCCCNC(=O)CN2CCN(c3ccc(Nc4ncc(F)c(-c5cc(F)c6nc(C)n(C(C)C)c6c5)n4)nc3)CC2)n1 [CPD-661, N-(6-(dimethylamino)pyridazin-3-yl)-2-((5-(2-(4-(6-((5-fluoro-4-(4-fluoro-1-isopropyl-2-methyl-1H-benzo[d]imidazol-6-yl)pyrimidin-2-yl)amino)pyridin-3-yl)piperazin-1-yl)acetamido)pentyl)amino)-6-(methylamino)nicotinamide]
  % Cyclin D1 Relative Level (10 nM): C (Relative protein level >85%)
  % Cyclin D1 Relative Level (100 nM): C (Relative protein level >85%)

## CNc1ccc(C(=O)Nc2ccc(N(C)C)nn2)c(NCCCCCCNC(=O)CN2CCN(c3ccc(Nc4ncc(F)c(-c5cc(F)c6nc(C)n(C(C)C)c6c5)n4)nc3)CC2)n1 [CPD-662, N-(6-(dimethylamino)pyridazin-3-yl)-2-((6-(2-(4-(6-((5-fluoro-4-(4-fluoro-1-isopropyl-2-methyl-1H-benzo[d]imidazol-6-yl)pyrimidin-2-yl)amino)pyridin-3-yl)piperazin-1-yl)acetamido)hexyl)amino)-6-(methylamino)nicotinamide]
  % Cyclin D1 Relative Level (10 nM): C (Relative protein level >85%)
  % Cyclin D1 Relative Level (100 nM): C (Relative protein level >85%)

## CNc1ccc(C(=O)Nc2ccc(N(C)C)nn2)c(NCCCCCCCNC(=O)CN2CCN(c3ccc(Nc4ncc(F)c(-c5cc(F)c6nc(C)n(C(C)C)c6c5)n4)nc3)CC2)n1 [CPD-663, N-(6-(dimethylamino)pyridazin-3-yl)-2-((7-(2-(4-(6-((5-fluoro-4-(4-fluoro-1-isopropyl-2-methyl-1H-benzo[d]imidazol-6-yl)pyrimidin-2-yl)amino)pyridin-3-yl)piperazin-1-yl)acetamido)heptyl)amino)-6-(methylamino)nicotinamide]
  % Cyclin D1 Relative Level (10 nM): C (Relative protein level >85%)
  % Cyclin D1 Relative Level (100 nM): C (Relative protein level >85%)

## CNc1ccc(C(=O)Nc2ccc(N(C)C)nn2)c(NCCCCCCCCNC(=O)CN2CCN(c3ccc(Nc4ncc(F)c(-c5cc(F)c6nc(C)n(C(C)C)c6c5)n4)nc3)CC2)n1 [CPD-664, N-(6-(dimethylamino)pyridazin-3-yl)-2-((8-(2-(4-(6-((5-fluoro-4-(4-fluoro-1-isopropyl-2-methyl-1H-benzo[d]imidazol-6-yl)pyrimidin-2-yl)amino)pyridin-3-yl)piperazin-1-yl)acetamido)octyl)amino)-6-(methylamino)nicotinamide]
  % Cyclin D1 Relative Level (10 nM): C (Relative protein level >85%)
  % Cyclin D1 Relative Level (100 nM): C (Relative protein level >85%)

## CNc1ccc(C(=O)Nc2ccc(N(C)C)nn2)c(NCCOCCNC(=O)CN2CCN(c3ccc(Nc4ncc(F)c(-c5cc(F)c6nc(C)n(C(C)C)c6c5)n4)nc3)CC2)n1 [CPD-665, N-(6-(dimethylamino)pyridazin-3-yl)-2-((2-(2-(2-(4-(6-((5-fluoro-4-(4-fluoro-1-isopropyl-2-methyl-1H-benzo[d]imidazol-6-yl)pyrimidin-2-yl)amino)pyridin-3-yl)piperazin-1-yl)acetamido)ethoxy)ethyl)amino)-6-(methylamino)nicotinamide]
  % Cyclin D1 Relative Level (10 nM): C (Relative protein level >85%)
  % Cyclin D1 Relative Level (100 nM): C (Relative protein level >85%)

## CNc1ccc(C(=O)Nc2ccc(N(C)C)nn2)c(NCCC(=O)NC2CCC(Nc3ncc4ccc(=O)n(C5CCCC5)c4n3)CC2)n1 (stereo not shown) [CPD-666, 2-((3-((4-((8-cyclopentyl-7-oxo-7,8-dihydropyrido[2,3-d]pyrimidin-2-yl)amino)cyclohexyl)amino)-3-oxopropyl)amino)-N-(6-(dimethylamino)pyridazin-3-yl)-6-(methylamino)nicotinamide]
  % Cyclin D1 Relative Level (10 nM): C (Relative protein level >85%)
  % Cyclin D1 Relative Level (100 nM): C (Relative protein level >85%)

## CNc1ccc(C(=O)Nc2ccc(N(C)C)nn2)c(NCCCC(=O)NC2CCC(Nc3ncc4ccc(=O)n(C5CCCC5)c4n3)CC2)n1 (stereo not shown) [CPD-667, 2-((4-((4-((8-cyclopentyl-7-oxo-7,8-dihydropyrido[2,3-d]pyrimidin-2-yl)amino)cyclohexyl)amino)-4-oxobutyl)amino)-N-(6-(dimethylamino)pyridazin-3-yl)-6-(methylamino)nicotinamide]
  % Cyclin D1 Relative Level (10 nM): C (Relative protein level >85%)
  % Cyclin D1 Relative Level (100 nM): C (Relative protein level >85%)

## CNc1ccc(C(=O)Nc2ccc(N(C)C)nn2)c(NCCCCC(=O)NC2CCC(Nc3ncc4ccc(=O)n(C5CCCC5)c4n3)CC2)n1 (stereo not shown) [CPD-668, 2-((5-((4-((8-cyclopentyl-7-oxo-7,8-dihydropyrido[2,3-d]pyrimidin-2-yl)amino)cyclohexyl)amino)-5-oxopentyl)amino)-N-(6-(dimethylamino)pyridazin-3-yl)-6-(methylamino)nicotinamide]
  % Cyclin D1 Relative Level (10 nM): C (Relative protein level >85%)
  % Cyclin D1 Relative Level (100 nM): C (Relative protein level >85%)

## CNc1ccc(C(=O)Nc2ccc(N(C)C)nn2)c(NCCCCCC(=O)NC2CCC(Nc3ncc4ccc(=O)n(C5CCCC5)c4n3)CC2)n1 (stereo not shown) [CPD-669, 2-((6-((4-((8-cyclopentyl-7-oxo-7,8-dihydropyrido[2,3-d]pyrimidin-2-yl)amino)cyclohexyl)amino)-6-oxohexyl)amino)-N-(6-(dimethylamino)pyridazin-3-yl)-6-(methylamino)nicotinamide]
  % Cyclin D1 Relative Level (10 nM): C (Relative protein level >85%)
  % Cyclin D1 Relative Level (100 nM): C (Relative protein level >85%)

## CNc1ccc(C(=O)Nc2ccc(N(C)C)nn2)c(NCCCCCCC(=O)NC2CCC(Nc3ncc4ccc(=O)n(C5CCCC5)c4n3)CC2)n1 (stereo not shown) [CPD-670, 2-((7-((4-((8-cyclopentyl-7-oxo-7,8-dihydropyrido[2,3-d]pyrimidin-2-yl)amino)cyclohexyl)amino)-7-oxoheptyl)amino)-N-(6-(dimethylamino)pyridazin-3-yl)-6-(methylamino)nicotinamide]
  % Cyclin D1 Relative Level (10 nM): C (Relative protein level >85%)
  % Cyclin D1 Relative Level (100 nM): C (Relative protein level >85%)

## CNc1ccc(C(=O)Nc2ccc(N(C)C)nn2)c(NCCCCCCCC(=O)NC2CCC(Nc3ncc4ccc(=O)n(C5CCCC5)c4n3)CC2)n1 (stereo not shown) [CPD-671, 2-((8-((4-((8-cyclopentyl-7-oxo-7,8-dihydropyrido[2,3-d]pyrimidin-2-yl)amino)cyclohexyl)amino)-8-oxooctyl)amino)-N-(6-(dimethylamino)pyridazin-3-yl)-6-(methylamino)nicotinamide]
  % Cyclin D1 Relative Level (10 nM): C (Relative protein level >85%)
  % Cyclin D1 Relative Level (100 nM): C (Relative protein level >85%)

## CNc1ccc(C(=O)Nc2ccc(N(C)C)nn2)c(NCCOCCC(=O)NC2CCC(Nc3ncc4ccc(=O)n(C5CCCC5)c4n3)CC2)n1 (stereo not shown) [CPD-672, 2-((2-(3-((4-((8-cyclopentyl-7-oxo-7,8-dihydropyrido[2,3-d]pyrimidin-2-yl)amino)cyclohexyl)amino)-3-oxopropoxy)ethyl)amino)-N-(6-(dimethylamino)pyridazin-3-yl)-6-(methylamino)nicotinamide]
  % Cyclin D1 Relative Level (10 nM): C (Relative protein level >85%)
  % Cyclin D1 Relative Level (100 nM): C (Relative protein level >85%)

## CNc1ccc(C(=O)Nc2ccc(N(C)C)nn2)c(NCCC(=O)NC2CCC3(CC2)CC(Nc2ncc4ccc(=O)n(C5CCCC5)c4n2)C3)n1 (stereo not shown) [CPD-673, 2-((3-((2-((8-cyclopentyl-7-oxo-7,8-dihydropyrido[2,3-d]pyrimidin-2-yl)amino)spiro[3.5]nonan-7-yl)amino)-3-oxopropyl)amino)-N-(6-(dimethylamino)pyridazin-3-yl)-6-(methylamino)nicotinamide]
  % Cyclin D1 Relative Level (10 nM): C (Relative protein level >85%)
  % Cyclin D1 Relative Level (100 nM): C (Relative protein level >85%)

## CNc1ccc(C(=O)Nc2ccc(N(C)C)nn2)c(NCCCC(=O)NC2CCC3(CC2)CC(Nc2ncc4ccc(=O)n(C5CCCC5)c4n2)C3)n1 (stereo not shown) [CPD-674, 2-((4-((2-((8-cyclopentyl-7-oxo-7,8-dihydropyrido[2,3-d]pyrimidin-2-yl)amino)spiro[3.5]nonan-7-yl)amino)-4-oxobutyl)amino)-N-(6-(dimethylamino)pyridazin-3-yl)-6-(methylamino)nicotinamide]
  % Cyclin D1 Relative Level (10 nM): C (Relative protein level >85%)
  % Cyclin D1 Relative Level (100 nM): C (Relative protein level >85%)

## CNc1ccc(C(=O)Nc2ccc(N(C)C)nn2)c(NCCCCC(=O)NC2CCC3(CC2)CC(Nc2ncc4ccc(=O)n(C5CCCC5)c4n2)C3)n1 (stereo not shown) [CPD-675, 2-((5-((2-((8-cyclopentyl-7-oxo-7,8-dihydropyrido[2,3-d]pyrimidin-2-yl)amino)spiro[3.5]nonan-7-yl)amino)-5-oxopentyl)amino)-N-(6-(dimethylamino)pyridazin-3-yl)-6-(methylamino)nicotinamide]
  % Cyclin D1 Relative Level (10 nM): C (Relative protein level >85%)
  % Cyclin D1 Relative Level (100 nM): C (Relative protein level >85%)

## CNc1ccc(C(=O)Nc2ccc(N(C)C)nn2)c(NCCCCCC(=O)NC2CCC3(CC2)CC(Nc2ncc4ccc(=O)n(C5CCCC5)c4n2)C3)n1 (stereo not shown) [CPD-676, 2-((6-((2-((8-cyclopentyl-7-oxo-7,8-dihydropyrido[2,3-d]pyrimidin-2-yl)amino)spiro[3.5]nonan-7-yl)amino)-6-oxohexyl)amino)-N-(6-(dimethylamino)pyridazin-3-yl)-6-(methylamino)nicotinamide]
  % Cyclin D1 Relative Level (10 nM): C (Relative protein level >85%)
  % Cyclin D1 Relative Level (100 nM): C (Relative protein level >85%)

## CNc1ccc(C(=O)Nc2ccc(N(C)C)nn2)c(NCCCCCCC(=O)NC2CCC3(CC2)CC(Nc2ncc4ccc(=O)n(C5CCCC5)c4n2)C3)n1 (stereo not shown) [CPD-677, 2-((7-((2-((8-cyclopentyl-7-oxo-7,8-dihydropyrido[2,3-d]pyrimidin-2-yl)amino)spiro[3.5]nonan-7-yl)amino)-7-oxoheptyl)amino)-N-(6-(dimethylamino)pyridazin-3-yl)-6-(methylamino)nicotinamide]
  % Cyclin D1 Relative Level (10 nM): C (Relative protein level >85%)
  % Cyclin D1 Relative Level (100 nM): C (Relative protein level >85%)
